Source: patent US20230235057A1 (CHIA TAI TIANQING PHARMACEUTICAL GROUP, published 2023)

How the values were obtained:
human PD-1 [1] = target: T1, human PD-1 (human, UniProt Q15116 25-288); assay: cell-based or functional assay
human PD-1 [2] = target: T1, human PD-1; assay: cell-based or functional assay; remark: listed apart in the source
T1 sequence (Q15116 25-288): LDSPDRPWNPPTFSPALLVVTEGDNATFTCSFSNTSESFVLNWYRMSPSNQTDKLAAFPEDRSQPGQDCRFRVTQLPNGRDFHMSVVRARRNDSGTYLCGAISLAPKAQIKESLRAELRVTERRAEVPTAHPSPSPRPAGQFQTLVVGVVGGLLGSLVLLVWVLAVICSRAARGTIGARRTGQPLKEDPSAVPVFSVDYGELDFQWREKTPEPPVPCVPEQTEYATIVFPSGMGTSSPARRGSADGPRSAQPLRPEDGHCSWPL

EC50 value (ng/mL), reporter gene assay with reference to Example 4 (human PD-1 [1]): 282 ng/mL | Biological activity (EC50 of control / EC50 of test sample), reporter gene assay, against Nivolumab (human PD-1 [2]): 72% | EC50 value (ng/mL), reporter gene assay (CHO-PDL1-CD3L cells with Jurkat-PD-1-NFAT cells, luciferase RLU) (human PD-1 [2]): 158 ng/mL
B1: PD1/TGFβRII fusion protein (other)
heavy: EVQLVESGGGLVQPGGSLRLSCAASGFAFSSYDMSWVRQAPGKGLDWVATISGGGRYTYYPDSVKGRFTISRDNSKNNLYLQMNSLRAEDTALYYCANRYGEAWFAYWGQGTLVTVSSASTKGPSVFPLAPSSKSTSGGTAALGCLVKDYFPEPVTVSWNSGALTSGVHTFPAVLQSSGLYSLSSVVTVPSSSLGTQTYICNVNHKPSNTKVDKKV[human IgG1 Fc with L234A L235A G237A (EU numbers) not spelt out]AGGGGSGGGGSGGGGSGGGGSGIPPHVQKSVNNDMIVTDNNGAVKFPQLCKFCDVRFSTCDNQKSCMSNCSITSICEKPQEVCVAVWRKNDENITLETVCHDPKLPYHDFILEDAASPKCIMKEKKKPGETFFMCSCSSDECNDNIIFSEEYNTSNPD
light: DIQMTQSPSSMSASVGDRVTFTCRASQDINTYLSWFQQKPGKSPKTLIYRANRLVSGVPSRFSGSGSGQDYTLTISSLQPEDMATYYCLQYDEFPLTFGAGTKLELKRTVAAPSVFIFPPSDEQLKSGTASVVCLLNNFYPREAKVQWKVDNALQSGNSQESVTEQDSKDSTYSLSSTLTLSKADYEKHKVYACEVTHQGLSSPVTKSFNRGEC
